Laboratory results as given in PubChem BioAssay AID463173 (ICCB-Longwood Screening Facility, Harvard Medical School, 2010).
Screen size: about 52,000 compounds; about 1,700 (3.3%) were called active. Rule as the data show it: active = survival mostly below about 52% (no sharp cut-off); inactive = mostly above about 56%. The list shows a part of the results.

System: Wild type
Assay: growth inhibition of S. aureus wild type versus tarO mutant, primary screen, teichoic acid synthesis inhibitors, RN4220, OD600 (AID 463173)
Settings: S. aureus RN4220 wild type/DeltatarO growth, OD600, 18 h, hits give low values, screened at 18.75 µg/mL (by protocol)

Row | SMILES | survival
1 | CCOCCCNC(=O)c1cc2c(=O)n(C)c3ccccc3c2n1C | inactive: 82%
2 | COc1ccc(NC(=O)Cn2c(=O)n(-c3cccc(C)c3)c(=O)c3c2c2cc(C)ccc2n3C)cc1Cl | inactive: 86%
3 | O=C(C1CCC(CNS(=O)(=O)c2ccc(Br)s2)CC1)N1CCN(c2ccccc2Cl)CC1 (configuration not stated) | inactive: 80%
4 | CCOc1cc2sc(N3CCC(C(=O)Nc4ccccc4C(=O)OC)CC3)nc2cc1Br | inactive: 85%
5 | Cc1ccc(NC(=O)COc2ccc(-c3nn(C)c(=O)c4ccccc34)cc2)cc1 | inactive: 66%
6 | CCOC(=O)c1cccc(NC(=O)c2cc3cc4cc(OC)ccc4nc3s2)c1 | inactive: 81%
7 | COc1ccc(C)cc1NC(=O)CN1C(=O)COc2ccc(S(=O)(=O)N3CCOCC3)cc21 | inactive: 97%
8 | O=C(COCc1cc(-c2cccs2)on1)Nc1cc(Cl)ccc1O | inactive: 79%
9 | CCOC(=O)c1sc(NC(=O)C(C)Oc2ccc(OC)cc2)c(C(=O)OCC)c1C (configuration not stated) | inactive: 88%
10 | COc1ccc(C(=O)Nc2cc(-c3ccccc3)nn2-c2ccccc2)cc1 | inactive: 70%
11 | CN(C)c1ccc(CNC(=O)C2CCCN(S(=O)(=O)c3ccc4c(ccn4C)c3)C2)cc1 (configuration not stated) | inactive: 88%
12 | Cc1ccc(CNC(=O)C2CCN(S(=O)(=O)Cc3ccccc3)CC2)cc1 | inactive: 85%
13 | c1ccc(-c2nc3cc(Cc4ccc5oc(-c6ccccn6)nc5c4)ccc3o2)nc1 | inactive: 113%
14 | COc1ccc(C2N=C(N)Nc3nc4ccccc4n32)c(OC)c1OC (configuration not stated) | inactive: 71%
15 | O=C(CN1CCN(Cc2ccc3c(c2)OCO3)CC1)N1c2ccccc2CCc2ccccc21 | inactive: 99%
16 | CCN1CCC(N(Cc2cccc(OC)c2)C(=O)Nc2cccc(C)c2C)CC1 | active: -3%
17 | CC1=Nc2cc(C(=O)NCc3ccc(C)cc3)ccc2Sc2ccc(Cl)cc21 | inactive: 73%
18 | CCc1ccc(NC(=O)N2CCN(Cc3nc4ccc(C)cc4o3)CC2)cc1 | inactive: 71%
19 | CCN(CC)C(=O)CN1C(=O)COc2ccc(S(=O)(=O)N3CCOCC3)cc21 | inactive: 76%
20 | CCCCNC(=O)Nc1ccc2c(c1)N(C)C(=O)c1ccccc1S2 | inactive: 78%
21 | O=C(CSc1nc2c([nH]c3ccccc32)c(=O)n1-c1ccc(Cl)cc1)NC1CCCCC1 | inactive: 72%
22 | COc1ccc(NC(=O)Cn2nnc(C(=O)NCc3ccco3)c2N)c(OC)c1 | inactive: 131%

Row | SMILES | survival
23 | COc1ccccc1NC(=O)c1c(C)cc(C)nc1SCC(=O)Nc1ccc(C)cc1 | inactive: 78%
24 | CC(=O)Nc1ccc(S(=O)(=O)NCC2CCC(C(=O)NCc3ccccc3)CC2)cc1 (configuration not stated) | inactive: 82%
25 | CCOc1cc(C(Nc2cc(C)ccn2)c2ccc3cccnc3c2O)ccc1OC (configuration not stated) | inactive: 145%
26 | COC(=O)C1=C(C)NC(=O)/C1=C\c1ccc(C)cc1 | inactive: 110%
27 | Cc1cc(Nc2cccc(Br)c2)n2c(nc3ccccc32)c1C#N | inactive: 67%
28 | Cc1ccc(N2CCN(C(=O)c3cn(C)c4ccc(S(=O)(=O)N5CCCC5)cc4c3=O)CC2C)cc1 (configuration not stated) | inactive: 134%
29 | CCOc1ccc(NC(=O)CN2C(=O)c3ccccc3Sc3ccc(C(=O)OC)cc32)cc1 | inactive: 81%
30 | O=C(NCc1ccco1)c1ccc(S(=O)(=O)N2CCCc3ccccc32)cc1 | inactive: 109%
31 | Cc1cc(C)cc(-n2c(SCC(=O)NCc3ccc(F)cc3)nc3c([nH]c4ccccc43)c2=O)c1 | inactive: 63%
32 | Cc1ccc2c(c1)c(=O)c1ccccc1n2CCCC(=O)Nc1ccc(Cl)c(Cl)c1 | inactive: 58%
33 | COc1cc(NC(=O)CSc2nc(-c3ccccc3)no2)cc(OC)c1 | inactive: 71%
34 | COC(=O)c1sc(-c2ccccc2)cc1NC(=O)c1cccc(Cl)c1 | inactive: 38%
35 | Cc1cccc(C)c1NC(=O)C(=O)NCC(c1cccnc1)N1CCc2ccccc21 (configuration not stated) | inactive: 84%
36 | COc1cccc(NC(=O)CN2C(=O)CC(c3ccco3)Sc3ccccc32)c1 (configuration not stated) | inactive: 84%
37 | O=C(C1CCC(Cn2c(=O)c3sccc3n(Cc3ccccc3F)c2=O)CC1)N1CCOCC1 (configuration not stated) | inactive: 71%
38 | COc1cc(NC(=O)c2cc3c(=O)n(Cc4ccco4)ccc3nc2C)cc(OC)c1OC | inactive: 63%
39 | CCOC(=O)c1c(NC(=O)c2ccc(S(=O)(=O)N(CC(C)C)CC(C)C)cc2)sc2c1CCN(CC)C2 | inactive: 65%
40 | CCN(CC)c1ccc(NC(=O)C2CCN(S(=O)(=O)c3ccc4c(c3)oc(=O)n4C)CC2)c(C)c1 | inactive: 84%
41 | CCOC(=O)N1CCc2c(sc(NCc3cccs3)c2C(=O)Nc2cc(Cl)ccc2OC)C1 | inactive: 83%
42 | Cc1ccc(S(=O)(=O)N2C(=S)SCC2(C)C)cc1 | inactive: 107%
43 | COc1ccccc1N1CCN(C(=O)c2ccc3c(c2)N(Cc2cc(C)ccc2C)C(=O)c2ccccc2S3(=O)=O)CC1 | inactive: 81%
44 | COc1ccc(CN(C(=O)c2cc(=O)c3ccccc3o2)C2CCS(=O)(=O)C2)cc1OC (configuration not stated) | inactive: 118%

Row | SMILES | survival
45 | Cc1cccc(NC(=O)C(NS(=O)(=O)c2cccc3nsnc23)c2ccccc2)c1C (configuration not stated) | inactive: 90%
46 | CC(C)(C)OC(=O)N1CCC(c2c(C(=O)N3CCN(c4ccccn4)CC3)cnn2-c2cccc(F)c2)CC1 | inactive: 90%
47 | Cc1ccc(NC(=O)Cn2c(=O)n(Cc3ccco3)c(=O)c3sc4ccccc4c32)c(C)c1 | inactive: 87%
48 | Cc1ccc(-n2c(C)cc(/C=C(/C#N)c3ccccc3)c2C)cc1 | inactive: 102%
49 | COc1ccc(N2CCN(S(=O)(=O)c3cc(Br)cc4c3N(C(=O)C3CC3)CC4)CC2)cc1 | inactive: 90%
50 | CCOC(=O)c1ccc(NS(=O)(=O)c2ccc3c(c2)CCN3C(=O)CC)cc1 | inactive: 86%
51 | COc1cc2c(=O)c(S(=O)(=O)c3ccc(C(C)C)cc3)cn(Cc3ccccc3C)c2cc1OC | inactive: 94%
52 | Cc1ccc(C(=O)NCC(c2ccco2)S(=O)(=O)c2ccccc2)cc1C (configuration not stated) | inactive: 72%
53 | CCOC(=O)c1c(C)c(-c2ccccc2)n(CC(=O)NCc2ccccc2)c1C | inactive: 87%
54 | Cc1cc(C)c(Cn2c(=O)n(Cc3ccccc3)c(=O)c3c(C)c(C)sc32)c(C)c1 | inactive: 82%
55 | O=C(Nc1cccc(C(F)(F)F)c1)c1cc2nc(-c3ccco3)cc(C(F)(F)Cl)n2n1 | inactive: 71%
56 | O=C(CSc1nccn1Cc1ccccc1)Nc1nc2ccccc2s1 | inactive: 121%
57 | COc1ccc(OC)c(NC(=O)COCc2cc(-c3ccco3)on2)c1 | inactive: 22%
58 | N#CC(C#N)=Cc1cn(-c2ccccc2)nc1-c1ccccc1 | inactive: 113%
59 | C1CCC(Nc2nc(N3CCOCC3)nc(N3CCOCC3)n2)CC1 | inactive: 105%
60 | CCOC(=O)c1cc(-c2ccccc2)n(CCC(=O)NCCc2ccc(C)cc2)c1C | inactive: 73%
61 | COc1ccc(OCC(=O)N2CCN(S(C)(=O)=O)CC2)cc1 | inactive: 106%
62 | COc1ccc(-n2nc(C(=O)N3CCCCC3)c3c4ccccc4n(C)c3c2=O)cc1Cl | inactive: 124%
63 | Cc1ccc(S(=O)(=O)c2nnn(CC(=O)Nc3ccccc3C)c2N)cc1 | inactive: 94%
64 | Cc1ccc(Nc2nc3c(S(=O)(=O)c4ccccc4)nnn3c3ccsc23)c(C)c1 | inactive: 97%
65 | Cc1cccc2sc(N(CCCN(C)C)C(=O)c3ccc(Cl)s3)nc12 | inactive: 80%
66 | Cc1ccc(S(=O)(=O)c2cn(CC(=O)Nc3ccc4c(c3)OCO4)c3ccccc3c2=O)cc1 | inactive: 84%

Row | SMILES | survival
67 | Cc1sc2ncn(CC(=O)N3CCN(c4ccc(F)cc4)CC3)c(=O)c2c1S(=O)(=O)N1CCCCC1 | inactive: 88%
68 | COc1ccc(NC(=O)C(C)N2CCN(C)CC2)cc1 (configuration not stated) | inactive: 104%
69 | COc1ccc2[nH]c(=O)c(CN(CCCN3CCOCC3)C(=O)Nc3ccccc3)cc2c1 | inactive: 102%
70 | COc1cccc(NC(=O)CSc2nc(=O)n(Cc3ccco3)c3c2CCC3)c1 | inactive: 72%
71 | COc1cc(C2C(C(=O)OCC(C)C)=C(C)N=C3SCCC(=O)N32)ccc1OCc1ccccc1 (configuration not stated) | inactive: 72%
72 | Cc1cccc(NC(=O)Cn2nnc(C(=O)Nc3ccc(F)c(Cl)c3)c2N)c1 | inactive: 95%
73 | CC1=C(C(=O)Nc2ccc(C)cc2C)C(C(C)C)n2nc(SCc3ccccc3Cl)nc2N1 (configuration not stated) | inactive: 71%
74 | CCOC(=O)n1c(SCC)nc2ccccc21 | inactive: 104%
75 | CCN(CC)CCCNC(=O)CSc1c2c(nc3cc(Cl)ccc13)CCCC2 | inactive: 84%
76 | Cc1cc(C)c2nc(N(Cc3cccnc3)C(=O)c3ccc(S(=O)(=O)N(C)C)cc3)sc2c1 | inactive: 57%
77 | CCN1CCN(c2cc3c(cc2F)c(=O)c(S(=O)(=O)c2ccc(OC)cc2)cn3CC)CC1 | inactive: 72%
78 | Cn1c(C(=O)NCc2ccccc2F)cc2oc3ccccc3c21 | inactive: 69%
79 | Oc1ccccc1C1OC2CCCCC2C2=CCCCC21 (configuration not stated) | inactive: 130%
80 | C[n+]1ccc(/C=C/c2ccc(N3CCCC3)o2)cc1 | inactive: 88%
81 | O=C(c1ccco1)n1nc(-c2ccccc2)nc1NCc1ccc(F)cc1 | inactive: 73%
82 | COc1cccc2sc(N(Cc3cccnc3)C(=O)Cc3ccccc3)nc12 | inactive: 89%
83 | Cc1c(C(=O)Nc2cccc(C(F)(F)F)c2)sc2nc3n(c(=O)c12)CCCC3 | inactive: 80%
84 | COc1ccc2oc(-c3cccc(NC(=O)c4ccc(C#N)cc4F)c3)nc2c1 | inactive: 81%
85 | CCCCNC(=O)c1ccc2c(c1)NC(=O)C(CS(=O)(=O)Cc1cccc(C)c1)N2 (configuration not stated) | inactive: 128%
86 | CCN1CCN(c2oc(-c3ccc(COc4ccc(C)cc4)o3)nc2C#N)CC1 | inactive: 51%
87 | CCCCNc1ncnc2c1nnn2C | inactive: 73%
